These are yes or no findings as the source states them, for the method shown. In cells and extracts the contact can be indirect. Some binding calls cover weakened binding; strength is not graded here. Where a sequence is shown, tags or fusion partners need not be part of it.
T1: StrepHA-SARAF_CytD-SGFP2 (WT) (human) (UniProt Q96BY9)
T1 sequence: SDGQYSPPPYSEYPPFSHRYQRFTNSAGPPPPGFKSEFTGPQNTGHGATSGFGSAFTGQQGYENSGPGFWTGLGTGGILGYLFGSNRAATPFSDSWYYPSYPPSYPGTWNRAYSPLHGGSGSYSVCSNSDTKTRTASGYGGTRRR

Chains of the proteins cited; added tags and fusions are not shown.
UniProt O75340: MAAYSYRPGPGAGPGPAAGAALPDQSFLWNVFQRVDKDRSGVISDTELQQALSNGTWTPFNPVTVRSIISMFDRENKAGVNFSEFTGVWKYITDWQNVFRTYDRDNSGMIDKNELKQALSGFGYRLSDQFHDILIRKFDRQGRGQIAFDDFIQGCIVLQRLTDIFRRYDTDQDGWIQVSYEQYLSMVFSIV


How the values were obtained:
[1] = target: endogenous ALG-2 (human (endogenous in HEK293, HeLa, MCF7)) (UniProt O75340); experiment: co-IP; IP with anti-ALG-2 mAb from cleared lysates (HEK293 stably expressing untagged SARAF, HeLa, MCF7); HKM, 1% CHAPS, 100 μM CaCl2 (MCF7: varying or no added CaCl2); WB with anti-SARAF and anti-Sec31A pAbs
[2] = target: endogenous ALG-2 (human (endogenous in HEK293, HeLa, MCF7)) (UniProt O75340); experiment: co-IP; IP with anti-ALG-2 mAb from cleared lysates (HEK293 stably expressing untagged SARAF, HeLa, MCF7); HKM, 1% CHAPS, 5 mM EGTA; WB with anti-SARAF and anti-Sec31A pAbs
[3] = target: T1, StrepHA-SARAF_CytD-SGFP2 (WT) (human); experiment: co-IP; co-IP/HiBiT assay: SGFP2-fused proteins immunoprecipitated with anti-GFP pAb from HEK293 or HEK293 ALG-2KO lysates (with or without co-expressed FLAG-ALG-2); HKM, 1% Nonidet P-40, 10 mM NEM, 10 μM CaCl2; co-precipitated HiBiTHA-SARAF read by lytic HiBiT assay with LgBiT, normalised by …
[4] = target: full-length SARAF fused with different tags (SGFP2 and HiBiT), WT (human) (UniProt Q96BY9); experiment: co-IP; data not shown; full-length SARAF fused with different tags (SGFP2 and HiBiT); in the presence and absence of Ca2+
[5] = target: full-length SARAF fused with different tags (SGFP2 and HiBiT), F228S (human) (UniProt Q96BY9); experiment: as above

| Binder | binding [1] | binding [2] | other results |
| --- | --- | --- | --- |
| untagged wild type (WT) SARAF (protein, UniProt Q96BY9 31-339) WNDPDRMLLRDVKALTLHYDRYTTSRRLDPIPQLKCVGGTAGCDSYTPKVIQCQNKGWDGYDVQWECKTDLDIAYKFGKTVVSCEGYESSEDQYVLRGSCGLEYNLDYTELGLQKLKESGKQHGFASFSDYYYKWSSADSCNMSGLITIVVLLGIAFVVYKLFLSDGQYSPPPYSEYPPFSHRYQRFTNSAGPPPPGFKSEFTGPQNTGHGATSGFGSAFTGQQGYENSGPGFWTGLGTGGILGYLFGSNRAATPFSDSWYYPSYPPSYPGTWNRAYSPLHGGSGSYSVCSNSDTKTRTASGYGGTRRR | binds | no binding (condition: with 5 mM EGTA) | – |
| endogenous SARAF (protein, UniProt Q96BY9 31-339) WNDPDRMLLRDVKALTLHYDRYTTSRRLDPIPQLKCVGGTAGCDSYTPKVIQCQNKGWDGYDVQWECKTDLDIAYKFGKTVVSCEGYESSEDQYVLRGSCGLEYNLDYTELGLQKLKESGKQHGFASFSDYYYKWSSADSCNMSGLITIVVLLGIAFVVYKLFLSDGQYSPPPYSEYPPFSHRYQRFTNSAGPPPPGFKSEFTGPQNTGHGATSGFGSAFTGQQGYENSGPGFWTGLGTGGILGYLFGSNRAATPFSDSWYYPSYPPSYPGTWNRAYSPLHGGSGSYSVCSNSDTKTRTASGYGGTRRR | binds | no binding (condition: with 5 mM EGTA) | – |
| full-length HiBiTHA-SARAF (WT) (protein, UniProt Q96BY9 31-339) WNDPDRMLLRDVKALTLHYDRYTTSRRLDPIPQLKCVGGTAGCDSYTPKVIQCQNKGWDGYDVQWECKTDLDIAYKFGKTVVSCEGYESSEDQYVLRGSCGLEYNLDYTELGLQKLKESGKQHGFASFSDYYYKWSSADSCNMSGLITIVVLLGIAFVVYKLFLSDGQYSPPPYSEYPPFSHRYQRFTNSAGPPPPGFKSEFTGPQNTGHGATSGFGSAFTGQQGYENSGPGFWTGLGTGGILGYLFGSNRAATPFSDSWYYPSYPPSYPGTWNRAYSPLHGGSGSYSVCSNSDTKTRTASGYGGTRRR | – | – | binding [3]: binds |
| full-length SARAF fused with different tags (SGFP2 and HiBiT), WT (protein, UniProt Q96BY9 31-339) WNDPDRMLLRDVKALTLHYDRYTTSRRLDPIPQLKCVGGTAGCDSYTPKVIQCQNKGWDGYDVQWECKTDLDIAYKFGKTVVSCEGYESSEDQYVLRGSCGLEYNLDYTELGLQKLKESGKQHGFASFSDYYYKWSSADSCNMSGLITIVVLLGIAFVVYKLFLSDGQYSPPPYSEYPPFSHRYQRFTNSAGPPPPGFKSEFTGPQNTGHGATSGFGSAFTGQQGYENSGPGFWTGLGTGGILGYLFGSNRAATPFSDSWYYPSYPPSYPGTWNRAYSPLHGGSGSYSVCSNSDTKTRTASGYGGTRRR | – | – | binding [4]: binds |
| full-length SARAF fused with different tags (SGFP2 and HiBiT), F228S (protein, UniProt Q96BY9 31-339) WNDPDRMLLRDVKALTLHYDRYTTSRRLDPIPQLKCVGGTAGCDSYTPKVIQCQNKGWDGYDVQWECKTDLDIAYKFGKTVVSCEGYESSEDQYVLRGSCGLEYNLDYTELGLQKLKESGKQHGFASFSDYYYKWSSADSCNMSGLITIVVLLGIAFVVYKLFLSDGQYSPPPYSEYPPFSHRYQRFTNSAGPPPPGSKSEFTGPQNTGHGATSGFGSAFTGQQGYENSGPGFWTGLGTGGILGYLFGSNRAATPFSDSWYYPSYPPSYPGTWNRAYSPLHGGSGSYSVCSNSDTKTRTASGYGGTRRR | – | – | binding [5]: binds |
